# Laboratory results taken from the supplement of paper PMC3334620.
# The full ranking holds about 33,000 sequences; the median of “E-score (-0.5 to 0.5)” is about -0.016, and the highest 2% start at about 0.32. Some of the results follow.
# Target: T1, Stp1 (UniProt B3LFK1)
# T1 sequence: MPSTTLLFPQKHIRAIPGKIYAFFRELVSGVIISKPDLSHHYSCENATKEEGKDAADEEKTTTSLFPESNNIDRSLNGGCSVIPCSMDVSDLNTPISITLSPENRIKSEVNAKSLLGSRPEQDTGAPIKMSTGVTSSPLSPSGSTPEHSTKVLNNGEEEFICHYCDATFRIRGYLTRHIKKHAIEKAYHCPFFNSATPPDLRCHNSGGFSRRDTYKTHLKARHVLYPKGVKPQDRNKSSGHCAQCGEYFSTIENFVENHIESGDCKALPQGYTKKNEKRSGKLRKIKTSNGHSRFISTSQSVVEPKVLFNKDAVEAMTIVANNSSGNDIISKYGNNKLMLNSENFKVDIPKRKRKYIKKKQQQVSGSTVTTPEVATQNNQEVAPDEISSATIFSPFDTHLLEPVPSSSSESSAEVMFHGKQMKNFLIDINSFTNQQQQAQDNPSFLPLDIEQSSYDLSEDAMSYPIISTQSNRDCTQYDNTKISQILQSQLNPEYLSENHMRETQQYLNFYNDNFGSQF
# Experiment: PBM E-score (8-mer binding enrichment) (E-score (-0.5 to 0.5)); higher = stronger / more preferred TF binding; most listed sequences are background and not binding sites
# Details: protein concentration: 200 nM; construct: GST-full length
# Description: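 Universal 'all 10-mer' protein binding microarrays (Agilent AMADID 015681) probed with GST-tagged S. cerevisiae TFs (full-length or DBD) made by in vitro transcription/translation (PURExpress), about 100-200 nM. Bound TF was detected with fluorescent anti-GST. Each ungapped 8-mer (which stands for itself and its reverse complement) is scored by the PBM enrichment score (E-score), a modified Wilcoxon-Mann-Whitney statistic from -0.5 to +0.5, computed with the Universal PBM Analysis Suite. Scale: above 0.35 generally sequence-specific binding.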
row,Sequence,PBM E-score
1,AAGTTGAA,0.0406
2,CCATACTC,-0.203
3,CGAGCTTC,0.0433
4,AATCCCTC,-0.156
5,AGCGCGCA,0.114
6,TAATATAA,0.288
7,GAAGCGCC,0.337
8,TAGCTTAA,-0.0347
9,ACTATGCA,-0.0895
10,GCTGACTA,-0.129
11,GACGCAAA,0.0112
12,ACATCTCG,-0.12
13,AGGCATTC,0.106
14,AAGGATGC,-0.187
15,CCTGCTAG,-0.243
16,AAGAATCC,-0.0635
17,CCATGCGA,0.0104
18,ATCACTAA,0.0331
19,CCCGCCCC,0.0473
20,ATGCGGTC,0.0837
21,AATGAGTG,0.248
22,CTGATCGC,0.00771
23,AGTTCCAT,0.0785
24,AGGTGTAC,-0.083
25,AAACACCT,0.0286

row,Sequence,PBM E-score
1,TATCGTGA,0.0729
2,GAGTACCA,-0.0895
3,CGTTGCGA,-0.143
4,ACGCACCG,0.0649
5,ATTACTGA,0.0208
6,CTACTGAG,-0.179
7,TCCAAAGA,0.107
8,CCTCAATA,-0.0994
9,GCGCTGAA,-0.0189
10,AAGAAAAA,0.14
11,ATGACCTG,-0.216
12,GGTTGTGA,0.021
13,TTAGACAA,0.155
14,GGCGTCTA,0.184
15,AAGATGTG,0.105
16,GGACTACC,-0.286
17,ACGCCCAC,0.0413
18,CCCGAACC,-0.335
19,CAAACCAG,-0.23
20,CCTAAGCC,-0.355
21,CACACCGG,-0.101
22,CACACGCA,-0.0781
23,CCTGGTAG,-0.377
24,CCTTATAC,0.131
25,CAGTCACG,-0.217

row,Sequence,PBM E-score
1,GGTCCTGA,-0.163
2,CCGGTGCG,0.0017
3,CAGTGGTC,-0.205
4,GGTAACAC,0.02
5,AATTTTCA,0.0155
6,GACACTCA,-0.0595
7,CCACTCTA,-0.045
8,ACCGTCCG,-0.126
9,AAATATTT,0.206
10,CTGCTGGC,-0.201
11,AGTACACC,-0.0861
12,ATATACCG,0.169
13,CGCAGCTA,0.0823
14,TAATGCGA,0.0064
15,CTTTCACC,-0.133
16,CTGCCAGA,-0.0541
17,ACTCCACT,-0.185
18,ACAGCTTG,0.0542
19,AAGCCGGA,0.0672
20,AACGTCGC,0.0537
21,CAAGAGCC,0.21
22,CTTGAACA,0.0105
23,TTGAGAAA,0.14
24,GCGGACCA,0.0779
25,ATGTAATA,0.232

row,Sequence,PBM E-score
1,CACTGGGC,-0.115
2,GCTAATCC,0.0288
3,GGTGCATA,0.0601
4,CAAGATCG,-0.123
5,CTGTGGAA,0.0782
6,CTGTAAGC,-0.00316
7,CTTCACCC,0.102
8,GGCTCCTA,-0.146
9,TACAAGGA,-0.0214
10,AAATTCTT,0.0204
11,TATCTGCA,-0.0952
12,ACCTCCCG,-0.269
13,CAGGGGAC,-0.233
14,CGATGGCG,0.135
15,AATCCGGT,0.0539
16,TGCGCTAA,-0.0463
17,GCCGTTCC,0.432
18,GACTAGAC,-0.2
19,CAAACACG,0.144
20,CAGCCCGC,-0.276
21,GAAACCAC,-0.071
22,GTTACGAA,0.0653
23,ACGTGCAA,0.0742
24,AAACAATA,0.242
25,AGTCTCTC,-0.308

row,Sequence,PBM E-score
1,GTCTCGAA,-0.148
2,ACGCTGCC,0.045
3,TATCTTGA,0.0161
4,CAGCAAAG,-0.0961
5,ATTGGCAG,-0.117
6,AAAGTGCG,0.0942
7,TTAGCAAA,0.177
8,GTATCCAC,-0.116
9,GCGCCAGA,0.0726
10,TCCATTAA,0.0812
11,CGTATGCC,0.186
12,CTCAAAAG,0.0993
13,TACCGCCA,0.00821
14,GACATAGA,0.0833
15,AATGTAGA,-0.106
16,AGCTTGCG,0.0255
17,CTGTATAA,0.0921
18,AGAGTTAG,-0.0424
19,TGTACAAA,0.155
20,AGCTCTGC,-0.344
21,GCTTGTAC,0.167
22,CCGGAGCA,-0.181
23,ACCGAACA,0.105
24,CAATTGGC,0.0835
25,ATTCATAG,0.0844

row,Sequence,PBM E-score
1,GAGCCGAC,-0.156
2,CGCCTATA,-0.0418
3,CATATGGA,0.00529
4,CCTACACC,-0.292
5,GCCTTAGA,0.195
6,TGACGCCA,0.0207
7,AAATTAAT,0.12
8,TCGTGTAA,0.0773
9,AGTCATCG,-0.043
10,GACGGAGA,-0.202
11,ACTAACCC,-0.161
12,CTGAGAAG,-0.216
13,ATTGCCCA,-0.0152
14,GCTCACCC,-0.098
15,CTGCCTTC,-0.115
16,CGCGAAAG,-0.0342
17,CGGGTCAG,0.0137
18,GATGAGAC,0.0979
19,CTTACTAA,-0.0866
20,CCTATTGA,-0.0999
21,AGACCTAT,-0.0764
22,AAGCCCAT,-0.0914
23,AACATCAT,-0.0756
24,AAGGCCAA,-0.0435
25,CTCTGAGA,-0.194

row,Sequence,PBM E-score
1,CCCTGAAC,-0.0646
2,GACTCTTA,-0.209
3,GAGCTAGA,-0.0519
4,AACAAAAG,0.244
5,GGCGGAAC,0.125
6,AGGCGTCC,-0.0371
7,CCATGGCC,-0.177
8,CATCCAGC,-0.0777
9,CGTGTATA,0.132
10,ATAGCGCA,-0.228
11,GCGCAAGA,0.223
12,TACGATCA,0.0444
13,AGTGAATG,0.0894
14,AAGCGAAG,0.00833
15,ATGTCTTG,-0.0302
16,ACAATCAT,-0.00872
17,AAAAGACA,0.161
18,ACGCACTG,-0.144
19,ATGACGGA,-0.0588
20,GAAGCATA,-0.00057
21,GCTATTTA,0.0633
22,GAGTGGGA,-0.161
23,CCACGCGG,0.18
24,CCCATTAA,-0.0754
25,AATCATCA,0.0432

row,Sequence,PBM E-score
1,CATGGAAA,0.0744
2,ACAGCAGG,-0.136
3,CTCCTAAC,-0.289
4,ACCGAGAA,-0.0545
5,ACTCTGCC,-0.107
6,CTGTTTAC,0.0717
7,GTTATCCA,-0.0565
8,CCATAGAC,-0.075
9,CCAGTTAA,0.0601
10,AATTCATA,0.108
11,GCCAGGAA,-0.0276
12,AGTGACAT,-0.0142
13,GAGCGCTA,-0.0884
14,GAGTAGAC,0.0184
15,CCAAACAG,0.0273
16,CAAAGCTC,-0.276
17,GACCGTCC,-0.287
18,AACACGTA,0.0517
19,AACGTAGG,-0.217
20,CCATTTGC,0.116
21,ACGAACCA,0.152
22,CAAGTAAG,0.0789
23,AAACGATT,0.0574
24,CAGCGAGG,-0.144
25,GCATCTGA,-0.142

row,Sequence,PBM E-score
1,GCCTATAC,-0.164
2,AGATTCCT,-0.137
3,ATATGTCA,0.0964
4,GCAGTGCC,0.253
5,ATAACCGA,-0.063
6,CAAGGTGA,-0.129
7,TGGAACCA,0.0229
8,GGTCACGA,-0.0819
9,CGGCAGAA,0.328
10,CGCAGCCA,0.0536
11,GTTTGCGA,0.0649
12,CGCCGAAC,0.347
13,TCACAAGA,0.0558
14,ATGCGTAC,0.163
15,AACCTGTC,-0.17
16,CTGATGAA,-0.0479
17,TGTAATAA,0.189
18,ATTCGACC,-0.208
19,CGCGTTCC,-0.135
